# Measurements as given in the supplement of paper PMC3334620.
# Over roughly 33,000 sequences, “E-score (-0.5 to 0.5)” has its median near -0.054; the highest 2% begin near 0.35. The list shows a part of the results.
# Target: T1, Stb5 (UniProt P38699)
# T1 sequence: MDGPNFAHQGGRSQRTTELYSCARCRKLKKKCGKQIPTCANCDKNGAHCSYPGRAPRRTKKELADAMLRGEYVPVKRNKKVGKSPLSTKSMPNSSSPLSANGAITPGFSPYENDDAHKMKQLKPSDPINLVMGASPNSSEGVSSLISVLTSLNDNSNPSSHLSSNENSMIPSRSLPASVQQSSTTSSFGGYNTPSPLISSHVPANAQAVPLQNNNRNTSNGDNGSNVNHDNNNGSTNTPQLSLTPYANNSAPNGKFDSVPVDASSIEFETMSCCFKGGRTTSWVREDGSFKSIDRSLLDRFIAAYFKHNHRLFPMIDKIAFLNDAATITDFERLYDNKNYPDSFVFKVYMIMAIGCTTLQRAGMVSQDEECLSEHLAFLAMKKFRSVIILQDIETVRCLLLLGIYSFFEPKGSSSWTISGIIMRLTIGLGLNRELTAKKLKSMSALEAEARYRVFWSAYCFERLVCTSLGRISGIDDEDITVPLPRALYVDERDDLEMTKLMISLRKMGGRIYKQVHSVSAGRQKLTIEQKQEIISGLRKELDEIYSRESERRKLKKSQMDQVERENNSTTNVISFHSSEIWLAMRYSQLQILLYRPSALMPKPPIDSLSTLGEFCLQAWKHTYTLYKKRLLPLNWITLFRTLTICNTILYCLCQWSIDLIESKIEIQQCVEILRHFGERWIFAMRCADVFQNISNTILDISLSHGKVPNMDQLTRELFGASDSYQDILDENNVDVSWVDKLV
# Test: PBM E-score (8-mer binding enrichment) (E-score (-0.5 to 0.5)); higher = stronger / more preferred TF binding; most listed sequences are background and not binding sites
# Details: protein concentration: 200 nM; construct: GST-full length
# Method: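 Universal 'all 10-mer' protein binding microarrays (Agilent AMADID 015681) probed with GST-tagged S. cerevisiae TFs (full-length or DBD) made by in vitro transcription/translation (PURExpress), about 100-200 nM. Bound TF was detected with fluorescent anti-GST. Each ungapped 8-mer (which stands for itself and its reverse complement) is scored by the PBM enrichment score (E-score), a modified Wilcoxon-Mann-Whitney statistic from -0.5 to +0.5, computed with the Universal PBM Analysis Suite. Scale: above 0.35 generally sequence-specific binding.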
row,Sequence,PBM E-score
1,CGGGGGGC,0.0273
2,CACGTGTC,-0.219
3,GGGCCCAA,0.0646
4,GTGCCAGA,-0.0982
5,GGTATGCA,-0.172
6,CGGTATAC,0.183
7,ATCGATGG,-0.137
8,AAGGTTGC,-0.0796
9,AGAGGCCT,-0.239
10,GGCTCGAC,-0.113
11,GCCTCACC,-0.157
12,CGCTTGGA,-0.0324
13,TATCTCGA,-0.107
14,AGTGTAAA,-0.149
15,CAGTATGC,-0.117
16,CAATGTCC,0.138
17,CCATATTC,0.00817
18,ATCAGCCC,-0.035
19,ACCTTCGG,0.165
20,ATGTAACA,-0.0395
21,AAAGGAAA,-0.125
22,CTCGGCGA,0.138

row,Sequence,PBM E-score
1,GTGTTTCA,0.1
2,GCTATAAC,0.231
3,AGGAAGGC,-0.188
4,GCCTGAAC,-0.0873
5,CCCTACGC,-0.138
6,CCCCACCC,0.0191
7,CTTCAGAA,0.017
8,GGGCCACC,-0.0833
9,AGGGCCTG,-0.335
10,GAACATTA,-0.0177
11,ATTGCCTG,-0.106
12,AACTGATG,-0.153
13,CACGGATG,0.0738
14,CCATCACA,-0.122
15,AAGCGCCC,-0.01
16,AAAGGGTA,-0.181
17,CGAGTCTA,-0.128
18,TCAAATCA,-0.251
19,CAAGGGGA,-0.129
20,AAAAACCT,-0.126
21,CTGCCCGA,0.0717
22,AGTATTAG,-0.00323

row,Sequence,PBM E-score
1,AAATCGGC,0.313
2,AGCAACCA,-0.068
3,CGGTGACC,0.141
4,ACTCACCT,-0.384
5,AAAGAGCA,-0.184
6,GTTACCAA,-0.0674
7,ACAGAGTC,-0.115
8,GAGTTTCC,0.0707
9,GTTGCTCA,-0.146
10,AGCGCCAA,-0.123
11,CGGGACAG,0.0783
12,CGGACAGC,0.0844
13,CCGAGAGA,0.111
14,AACTCATA,0.0359
15,AGTTATAT,0.16
16,ACGCGCGA,-0.0608
17,GTACGAAA,-0.261
18,GAACTATA,0.203
19,ACTCTAGG,-0.144
20,ACATACGA,-0.2
21,ACATCGTA,0.017
22,AGTACTGG,-0.218

row,Sequence,PBM E-score
1,TCGTTCCA,-0.146
2,ATGTTTGC,-0.179
3,ATTAAAGA,-0.0748
4,GTGATGGA,-0.0207
5,TCCGTGCA,0.23
6,ACACAGCG,0.108
7,AGGCCTGG,-0.089
8,TAGTCCAA,-0.153
9,CGTTCCAC,0.134
10,ATAGACTC,-0.204
11,CAACCTTA,-0.237
12,CTTAATTA,0.112
13,CAGACTAC,-0.313
14,GAGTAGCA,-0.0403
15,CAAGCCAA,-0.0955
16,ATCATTTC,-0.113
17,ATACAACG,-0.0128
18,AGTACAAG,-0.147
19,AACACCAA,-0.0275
20,ACAGCACG,-0.0464
